# Laboratory results from article PMC12040169 (PLOS Biology, 2025).
# The other results are listed elsewhere or left out.
# System: T1, C. trachomatis L2/434/Bu expressing GFP (CTL2-GFP)
# T1 construct: L2/434/Bu GFP intracellular growth in HeLa cells
# Design: species or system HeLa; C. trachomatis total inclusion area by high-content imaging, normalised to DMSO
# Conditions: total inclusion area; 28.5 h, 10 µM; inhibitor
# Procedure, shortened: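 Post-fluorescence-read fixation, DNA staining with Hoechst and high-content imaging; GFP inclusion area and number per well, and nuclei counts, used as proxies for bacterial growth and host viability.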
row,SMILES,% of control remaining
1,Fc1cccc(-c2c[nH]nc2C2CCOCC2)c1 [CBK283465],81.352
2,COc1cc(S(=O)(=O)N2CCC(C(N)=O)CC2)ccc1Br [CBK268766],108.58
3,CC(=O)Nc1ccc(CNc2ncccc2OC(F)F)cc1 [CBK306016],70.7224
4,O=c1[nH]ccn1CCNc1ccc(-c2ccccc2Oc2ccccc2)cn1 [CBK037665],114.603
5,C#C[C@H]1C[N@@]2CC[C@H]1C[C@@H]2CNC(=O)Nc1ccc(C(C)=O)cc1 [CBK288755],88.3184
6,CC(=O)N1CCC2(CC1)CC(O)c1cc(C)c(C)cc1O2 (stereo not drawn) [CBK282826],93.3844
7,Cc1ccc(NC(=O)c2ccncc2)c(Br)c1 [CBK058282],116.928
8,COc1ccc(-c2nnc(SCC(=O)O)n2-c2cccc(C(F)(F)F)c2)cc1OC [CBK268347],92.126
9,CSc1cc(C)c(O)c(CO)c1 [CBK020687],67.8052
10,CC(C)n1c(=O)n(CC(=O)NCc2cccs2)c2cccnc21 [CBK283699],53.8499
11,Cn1c(=O)n(C)c2cc(CNC(=O)CC3COCCN3)ccc21 (stereo not drawn) [CBK307252],69.4138
12,Cc1[nH]c2ccc(Cl)cc2c1CC(=O)N(C)CCN(C)C [CBK282700],115.146
13,COc1cc(C(=O)N2CCC3(CC2)CC(=O)c2cc(-c4cccc(C)c4)ccc2O3)cc(OC)c1C [CBK170341],107.406
14,CN1CCC(=NNC(=O)C(=O)NCc2ccco2)CC1 [CBK262341],96.576
15,CSc1nnc(-c2ccco2)n1-c1cccc(Cl)c1C [CBK067723],65.1376
16,CC(CN(C)C(=O)c1cn[nH]c1C1CCNC1)Oc1ccc(Cl)c(Cl)c1 (stereo not drawn) [CBK304786],82.2915
17,O=C(O)Cc1ccc(NC(=S)Nc2cccc(Cl)c2Cl)cc1 [CBK267064],92.2469
18,COc1cc2nnnn2c(-c2ccccc2)n1 [CBK026189],61.3564
19,FC(F)(F)c1cccc(-c2nccnc2NCCCN2CCOCC2)c1 [CBK037288],87.9375
20,CC(c1ccncn1)N(C)C(=O)NCc1cccc(CN(C)C)c1 (stereo not drawn) [CBK307667],56.8054
21,CNS(=O)(=O)c1cc(C(=O)NCc2ccccc2)ccc1OC [CBK270277],103.309

row,SMILES,% of control remaining
1,O=S(=O)(c1ccc(-c2ccccc2)cc1)N1CCCN(Cc2cccnc2N2CCOCC2)CC1 [CBK063127],83.4294
2,COCCn1c(=O)[nH]c2ncc(-c3ccc4c(c3)OCO4)nc21 [CBK064164],86.3177
3,CC1CN(C2CCN(S(=O)(=O)c3cccs3)CC2)C(=O)O1 (stereo not drawn) [CBK044072],82.4921
4,CCOc1ccc(NC(=O)C(C)O)c(NC(=O)c2ccccc2Cl)c1 (stereo not drawn) [CBK269678],62.6159
5,CC(Sc1nc2cc(Cl)ccc2c(=O)n1CC1CCCO1)C(N)=O (stereo not drawn) [CBK305935],105.793
6,CN(CCO)S(=O)(=O)c1ccccc1[N+](=O)[O-] [CBK261457],75.6777
7,C=CCNC(=O)N1CCC2(CC1)OCCc1c2n(C)c2ccccc12 [CBK047354],112.011
8,Cc1cc2ncc3c(n2n1)CC1CCC3N1Cc1ccc(C)o1 (stereo not drawn) [CBK284412],96.9528
9,O=C(c1cccs1)N1Cc2ccccc2OC2(CCOCC2)C1 [CBK284942],97.9068
10,CCS(=O)(=O)c1ccc(O)c(NS(=O)(=O)c2cc(C(=O)O)ccc2Cl)c1 [CBK297531],95.2287
11,CCOC(=O)N1CCN(C2CCCN(Cc3c(C)nn(C)c3Cl)C2)CC1 (stereo not drawn) [CBK306853],33.3396
12,O=C(CCCc1ccccc1)Nc1scc2c(=O)oc3ccccc3c12 [CBK265435],106.674
13,Oc1ccc(/C=N/Nc2nnn[nH]2)c(O)c1 [CBK260972],102.973
14,Cc1cc(C)c2c(N)nc(N)nc2n1 [CBK025968],95.7849
15,O=C(CCCn1cccn1)N1CCOC(c2ccc(Cl)cc2)C1 (stereo not drawn) [CBK304643],69.9556
16,COc1cc(C(=O)Nc2nc(Cc3n[nH]c(=S)n3C)cs2)ccc1C [CBK296683],109.144
17,COC(=O)c1ccccc1NC(=O)CNS(=O)(=O)c1c(C)cc(C)cc1C [CBK265974],51.694
18,Cc1nc2c(c(N3CCN(c4ccc(O)cc4)CC3)n1)CN(Cc1ccccc1)CC2 [CBK286177],97.218
19,COc1cccc(CC(=O)N2[C@H](Cc3ccccc3)C[C@@H]3NCCCCC[C@H]32)c1 [CBK286030],83.6776
20,O=C(NCCN1CCCC1)c1ccc(Nc2cncc(-c3ccc(O)cc3)n2)c(Cl)c1 [CBK122666],76.5936
21,Cc1nn(CC(=O)N2CCC(C)CC2)c(=O)c2cc3ccsc3n12 [CBK284081],107.006

row,SMILES,% of control remaining
1,CCc1nccn1C(C)C(=O)Nc1ccc2ncn(C)c2c1 (stereo not drawn) [CBK281745],83.29
2,Cc1nn2c(CN(C(=O)c3ccccc3)c3ccccc3)nnc2c2ccccc12 [CBK268084],92.3443
3,O=C(NCCCN1CCOCC1)Nc1cccc(Cl)c1Cl [CBK016286],52.2987
4,CN1CCN(S(=O)(=O)c2ccc3c4c(cccc24)C(=O)N3)CC1 [CBK266647],93.5079
5,O=C(COc1ccccc1)Nc1cnc(-c2ccc(F)cc2)c(-c2ccsc2)n1 [CBK036958],102.968
6,CC(=O)c1ccc(NC(=O)C2C3C=CC(C3=C(c3ccccc3)c3ccccc3)C2C(=O)O)cc1 (stereo not drawn) [CBK265696],108.636
7,O=C(O)CCC(=O)Nc1cc(C(F)(F)F)ccc1N1CCCC1 [CBK057434],79.461
8,COc1nccnc1N1CCN(Cc2ccc(Cl)c(Cl)c2)CC1 [CBK084209],85.9561
9,COCCN1CCN(C(=O)[C@@H]2Cc3c[nH]c4cccc(c34)[C@H](CC(C)C)N2)CC1 [CBK289419],122.615
10,NS(=O)(=O)c1ccc(CCNC2CC(=O)N(Cc3cccs3)C2=O)cc1 (stereo not drawn) [CBK266579],138.483
11,O=C(C1=C(O)C(=O)N(CCCn2ccnc2)C1c1ccncc1)c1ccc(F)cc1 (stereo not drawn) [CBK264601],104.491
12,O=c1c([N+](=O)[O-])c(O)c2ccccc2n1-c1ccccc1 [CBK115316],94.0673
13,O=C1NC2(CCCCCC2)C(=O)N1Cc1cnn(-c2ccccc2)n1 [CBK305571],80.4656
14,CCCC/C=C/c1cncc(N(C)CCN(C)C)n1 [CBK065374],130.635
15,O=C(CN1C(=O)c2ccccc2C1=O)Nc1cc(C(=O)O)cc(C(=O)O)c1 [CBK262024],105.895
16,Cc1ccc2c(c1)C(=O)CC1(CCN(C(=O)OC(C)(C)C)CC1)O2 [CBK283599],65.928
17,O=C(O)C1=NN(c2ccccc2)C(=O)CC1 [CBK270176],86.129
18,COc1nc(Cl)nc(Oc2ccc(F)cc2)n1 [CBK011279],96.5183
19,Cc1ccc(-c2nccnc2OCc2ccccn2)c(C)c1 [CBK106979],100.979
20,Cc1cc(NC(=O)C2CCN(C(=O)c3cnc(N)c(Cl)c3)CC2)no1 [CBK305545],33.0206
21,Cc1scc(C(=O)NCc2ccccn2)c1-c1ccccc1 [CBK268107],78.5569

row,SMILES,% of control remaining
1,N#CCCCN1CCC(Oc2nccnc2OCCN2C(=O)CCC2=O)CC1 [CBK084349],86.8538
2,CCc1nc2ccc(C(=O)N3CCN(S(=O)(=O)CC)CC3)cn2c1N(C)CC [CBK145520],70.1986
3,Clc1cc2nc(OC3CCCNC3)c(N3CCCC3)nc2cc1Cl (stereo not drawn) [CBK113454],84.8502
4,COc1ccc(Cl)cc1N1CCN(CC(=O)Nc2ccc(F)c(Cl)c2)CC1 [CBK126417],95.9183
5,Cc1nnc(SCc2ccc(CSc3nnc(C)c(=O)[nH]3)cc2)[nH]c1=O [CBK268085],86.823
6,Cc1ccc2c(c1)nc(-c1ccc(O)cc1)n2Cc1ccc(O)cc1 [CBK291226],71.5963
7,O=C(Cc1nnn[nH]1)Nc1cccc(-c2nn[nH]n2)c1 [CBK160122],93.4064
8,COC(=O)CCC(=O)Nc1cccc([N+](=O)[O-])c1 [CBK261345],97.28
9,O=C(Cn1c(=O)cc(O)c2ccccc21)Nc1cccc(F)c1 [CBK291242],129.961
10,COCCNC(=O)N1CCN(CCc2ccccc2)CC1 [CBK158909],130.648
11,CN(C)CCNC(=O)c1cccc(-c2cnc3[nH]c(=O)n(C4CCCCC4)c3n2)c1 [CBK064191],117.49
12,CCCCC(O)(Cc1onc(-c2ccccc2)c1C(=O)N(C)C)c1ccc(CN2CCCC2)cc1 (stereo not drawn) [CBK034415T],0.107
13,Cc1nc2c(c(=O)[nH]1)CC[C@@H]1CN(C(=O)Cc3cccc(F)c3)C[C@H]21 [CBK284413],65.8572
14,Cc1ccc(OCC(=O)Nc2cccc(C(=O)O)c2)cc1 [CBK287023],83.3337
15,COc1cnc(/C=C\c2ccccc2)c(NC(=O)c2ccco2)n1 [CBK145361],128.376
16,COC(=O)c1ccc(-c2cn3ccnc3c(NCc3ccncc3)n2)cc1 [CBK066734],80.0941
17,COc1ccc2c(c1)C(C[C@H]1CN(C(=O)C3CC3)CC[C@H]1CC(=O)O)=NCC2 [CBK289157],91.5154
18,CCn1cc(C(=O)O)c(=O)c2cc(F)c(N3CCN(C(=S)Nc4cc(OC)ccc4OC)CC3)cc21 [CBK265831],98.468
